# In the supplement of paper PMC8728848:
# This is one part of the list.
# B1: PV12658A-bvu-496-32-496 (Bacteroides vulgatus) (protein)
# chain: DLDGAITTPAAVELALNGIYYSLPGNGFNVIFPTVSGSFKAGTMWRQEIVSAGNAVYYSERMLPTLSFSDATEWDADYAVIKNANFLETACNRMSDGEFSGNRRAEVLGEIAYLRALAYFNILVRYCEFWDMNSEYGVVMRNEAPSVSNALKARSSVADSYQYILDQLEIAIEKAPDWKKLSQASKEAAKALKARVLLYAGKYTEAVAAVNDAIDTNSPLPEANYGDVFDKFSTTKEILFARVFDQKDATNTSTRQQCYGNSPTKKQGYWGPTNEYVELVGDDPRADAIFSKVDSLMDSRSSAVAYNLKSVKKLLNDANDMPVIFSRVSELYLIKAEALYRSGASISEAYAPIRKLRERAGAEIILPANNEELETAIFNEWMLELSFENWHEWFAMIRFAGYTEKPDFTRLLALNKTLREALEKEYEKSEAQGDNYYQRIIDRRIDAIPSSEISSNLECKQNPGY
# What was measured:
# Assay in all cases: glycan array binding signal (z-score within array); higher = stronger binding
# Conditions in all cases: glycan notation: IUPAC condensed, linker removed
# Fuc(a1-2)Gal(b1-4)Glc6S = molecular target: Fuc(a1-2)Gal(b1-4)Glc6S
# Summary of the method: (§1)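 Negative Z-scores can be read as non-binding. The Z-score is calculated within each array and then averaged across arrays of one protein sequence at different concentrations or buffers and across linkers. Arrays, 3228 in all, were curated from the Consortium for Functional Glycomics database and kept only where the protein sequence was available.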
# Fuc(a1-2)Gal(b1-4)GlcNAc = molecular target: Fuc(a1-2)Gal(b1-4)GlcNAc
# Summary of the method: as §1
# [1] = molecular target: Fuc(a1-2)Gal(b1-4)GlcNAc(b1-2)Man
# Summary of the method: as §1
# [2] = molecular target: Fuc(a1-2)Gal(b1-4)GlcNAc(b1-2)Man(a1-3)[Fuc(a1-2)Gal(b1-4)GlcNAc(b1-2)Man(a1-6)]Man(b1-4)GlcNAc(b1-4)GlcNAc
# Summary of the method: as §1
# [3] = molecular target: Fuc(a1-2)Gal(b1-4)GlcNAc(b1-2)Man(a1-3)[Fuc(a1-2)Gal(b1-4)GlcNAc(b1-2)Man(a1-6)]Man(b1-4)GlcNAc(b1-4)[Fuc(a1-6)]GlcNAc
# Summary of the method: as §1
# [4] = molecular target: Fuc(a1-2)Gal(b1-4)GlcNAc(b1-2)[Fuc(a1-2)Gal(b1-4)GlcNAc(b1-4)]Man(a1-3)[Fuc(a1-2)Gal(b1-4)GlcNAc(b1-2)Man(a1-6)]Man(b1-4)GlcNAc(b1-4)GlcNAc
# Summary of the method: as §1
# [5] = molecular target: Fuc(a1-2)Gal(b1-4)GlcNAc(b1-3)Gal(b1-4)GlcNAc
# Summary of the method: as §1
# [6] = molecular target: Fuc(a1-2)Gal(b1-4)GlcNAc(b1-3)Gal(b1-4)GlcNAc(b1-2)Man(a1-3)[Fuc(a1-2)Gal(b1-4)GlcNAc(b1-3)Gal(b1-4)GlcNAc(b1-2)Man(a1-6)]Man(b1-4)GlcNAc(b1-4)GlcNAc
# Summary of the method: as §1
# [7] = molecular target: Fuc(a1-2)Gal(b1-4)GlcNAc(b1-3)Gal(b1-4)GlcNAc(b1-3)Gal(b1-4)GlcNAc
# Summary of the method: as §1
# [8] = molecular target: Fuc(a1-2)Gal(b1-4)GlcNAc(b1-3)GalNAc
# Summary of the method: as §1
# [9] = molecular target: Fuc(a1-2)Gal(b1-4)GlcNAc(b1-3)[Fuc(a1-2)Gal(b1-4)GlcNAc(b1-6)]GalNAc
# Summary of the method: as §1
# [10] = molecular target: Fuc(a1-2)Gal(b1-4)GlcNAc(b1-3)[Fuc(a1-3)[Gal(b1-4)]GlcNAc(b1-6)]Gal(b1-4)Glc
# Summary of the method: as §1
# [11] = molecular target: Fuc(a1-2)Gal(b1-4)GlcNAc(b1-6)GalNAc
# Summary of the method: as §1
# [12] = molecular target: Fuc(a1-2)Gal(b1-4)GlcNAc6S
# Summary of the method: as §1
# [13] = molecular target: Fuc(a1-2)Gal(b1-4)[Fuc(a1-3)]GlcNAc
# Summary of the method: as §1
# [14] = molecular target: Fuc(a1-2)Gal(b1-4)[Fuc(a1-3)]GlcNAc(b1-2)Man(a1-3)[Fuc(a1-2)Gal(b1-4)[Fuc(a1-3)]GlcNAc(b1-2)Man(a1-6)]Man(b1-4)GlcNAc(b1-4)[Fuc(a1-6)]GlcNAc
# Summary of the method: as §1
# [15] = molecular target: Fuc(a1-2)Gal(b1-4)[Fuc(a1-3)]GlcNAc(b1-2)[Fuc(a1-2)Gal(b1-4)[Fuc(a1-3)]GlcNAc(b1-4)]Man(a1-3)[Fuc(a1-2)Gal(b1-4)[Fuc(a1-3)]GlcNAc(b1-2)Man(a1-6)]Man(b1-4)GlcNAc(b1-4)GlcNAc
# Summary of the method: as §1
# [16] = molecular target: Fuc(a1-2)Gal(b1-4)[Fuc(a1-3)]GlcNAc(b1-3)Gal(b1-4)[Fuc(a1-3)]GlcNAc
# Summary of the method: as §1
# [17] = molecular target: Fuc(a1-2)Gal(b1-4)[Fuc(a1-3)]GlcNAc(b1-3)Gal(b1-4)[Fuc(a1-3)]GlcNAc(b1-3)Gal(b1-4)[Fuc(a1-3)]GlcNAc
# Summary of the method: as §1
# [18] = molecular target: Fuc(a1-2)Gal(b1-4)[Fuc(a1-3)]GlcNAc(b1-3)GalNAc
# Summary of the method: as §1
# [19] = molecular target: Fuc(a1-2)Gal(b1-4)[Fuc(a1-3)]GlcNAc(b1-3)[Neu5Ac(a2-6)Gal(b1-4)GlcNAc(b1-6)]Gal(b1-4)Glc
# Summary of the method: as §1
# [20] = molecular target: Fuc(a1-2)Gal3S(b1-4)GlcNAc
# Summary of the method: as §1
# [21] = molecular target: Fuc(a1-2)Gal6S(b1-3)GlcNAc
# Summary of the method: as §1
binder,measurement,setting,value
B1,glycan array binding signal (z-score),Fuc(a1-2)Gal(b1-4)Glc6S,-0.163
same,glycan array binding signal (z-score),Fuc(a1-2)Gal(b1-4)GlcNAc,-0.367
same,glycan array binding signal (z-score),[1],-0.199
same,glycan array binding signal (z-score),[2],-0.014
same,glycan array binding signal (z-score),[3],0.201
same,glycan array binding signal (z-score),[4],0.13
same,glycan array binding signal (z-score),[5],-0.446
same,glycan array binding signal (z-score),[6],0.017
same,glycan array binding signal (z-score),[7],-0.242
same,glycan array binding signal (z-score),[8],-0.552
same,glycan array binding signal (z-score),[9],-0.422
same,glycan array binding signal (z-score),[10],-0.343
same,glycan array binding signal (z-score),[11],-0.314
same,glycan array binding signal (z-score),[12],-0.209
same,glycan array binding signal (z-score),[13],-0.419
same,glycan array binding signal (z-score),[14],-0.36
same,glycan array binding signal (z-score),[15],-0.04
same,glycan array binding signal (z-score),[16],-0.318
same,glycan array binding signal (z-score),[17],-0.265
same,glycan array binding signal (z-score),[18],0.224
same,glycan array binding signal (z-score),[19],-0.263
same,glycan array binding signal (z-score),[20],-0.303
same,glycan array binding signal (z-score),[21],-0.329
